# Assay results: the supplement of paper PMC4967469
# Compound: O=C1NC(=NCc2cccs2)S/C1=C\c1ccc2ncccc2c1 [RO-3306]
# Assay: Viability of human cancer cell lines after 72 h of drug (GDSC screen)
# Settings: top dose 5 µM; top dose inferred
# Description: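 Human cancer cell lines in 384-well plates, medium with 10% serum, drug for 72 h over a 256-fold dose range (nine 2-fold or five 4-fold steps up to the top dose). Adherent lines were fixed and stained with the nucleic acid dye Syto60, suspension lines read with resazurin; signal relative to control wells, capped at 0 and 100%. One two-parameter sigmoid per drug and line, fitted in a mixed model over all curves with the slope shared within a line.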
Cell Line,AUC,IC50 [µM]
"CPC-N (small cell lung carcinoma, suspension)",0.985,> 5
"CRO-AP2 (B-cell lymphoma, suspension)",0.919,> 5
"CS1 (bone, adherent)",0.845,4.24
"CTB-1 (B-cell lymphoma, suspension)",0.915,> 5
"CTV-1 (acute myeloid leukaemia, suspension)",0.988,> 5
"CW-2 (large intestine, adherent)",0.972,> 5
"Ca9-22 (head and neck, adherent)",0.96,> 5
"Ca-Ski (cervix, adherent)",0.875,> 5
"CaR-1 (large intestine, adherent)",0.964,> 5
"Calu-3 (lung adenocarcinoma, adherent)",0.946,> 5
"Calu-6 (lung adenocarcinoma, adherent)",0.978,> 5
"Caov-4 (ovary, adherent)",0.934,> 5
"Capan-2 (pancreas, adherent)",0.976,> 5
"ChaGo-K-1 (non-small cell lung carcinoma, adherent)",0.939,> 5
"D-247MG (glioma, adherent)",0.98,> 5
"D-263MG (glioma, adherent)",0.965,> 5
"D-283MED (medulloblastoma, adherent)",0.949,> 5
"D-336MG (glioma, adherent)",0.981,> 5
"D-392MG (glioma, adherent)",0.962,> 5
"D-423MG (glioma, adherent)",0.931,> 5
"D-502MG (glioma, adherent)",0.912,> 5
"D-542MG (glioma, adherent)",0.938,> 5
"D-566MG (glioma, adherent)",0.921,> 5
"DAN-G (pancreas, adherent)",0.992,> 5
"DB (B-cell lymphoma, suspension)",0.863,> 5
"DBTRG-05MG (glioma, adherent)",0.983,> 5

Cell Line,AUC,IC50 [µM]
"DEL (lymphoid neoplasm, suspension)",0.993,> 5
"DG-75 (Burkitt lymphoma, suspension)",0.951,> 5
"DIFI (large intestine, adherent)",0.946,> 5
"DJM-1 (skin, adherent)",0.988,> 5
"DK-MG (glioma, adherent)",0.977,> 5
"DMS-79 (small cell lung carcinoma, suspension)",0.981,> 5
"DMS-114 (small cell lung carcinoma, adherent)",0.943,> 5
"DMS-273 (small cell lung carcinoma, adherent)",0.944,> 5
"DND-41 (T-cell leukaemia, suspension)",0.99,> 5
"DOHH-2 (B-cell lymphoma, suspension)",0.986,> 5
"DOK (head and neck, adherent)",0.812,4.6
"DOV13 (ovary, adherent)",0.936,> 5
"DSH1 (bladder, adherent)",0.958,> 5
"DU-145 (prostate, adherent)",0.979,> 5
"DU-4475 (breast, suspension)",0.983,> 5
"Daudi (Burkitt lymphoma, suspension)",0.991,> 5
"Detroit562 (head and neck, adherent)",0.982,> 5
"DoTc2-4510 (cervix, adherent)",0.964,> 5
"EB2 (Burkitt lymphoma, suspension)",0.99,> 5
"EB-3 (Burkitt lymphoma, suspension)",0.98,> 5
"EBC-1 (lung squamous cell carcinoma, adherent)",0.969,> 5
"EC-GI-10 (oesophagus, adherent)",0.964,> 5
"ECC10 (stomach, suspension)",0.982,> 5
"EFM-192A (breast, adherent)",0.959,> 5
"EFO-21 (ovary, adherent)",0.95,> 5
"EFO-27 (ovary, adherent)",0.946,> 5

Cell Line,AUC,IC50 [µM]
"EGI-1 (biliary tract, adherent)",0.971,> 5
"EHEB (lymphoid neoplasm, suspension)",0.963,> 5
"EJM (lymphoid neoplasm, semi-adherent)",0.992,> 5
"EKVX (lung adenocarcinoma, adherent)",0.955,> 5
"EM-2 (chronic myeloid leukaemia, suspension)",0.978,> 5
"EMC-BAC-1 (lung adenocarcinoma, adherent)",0.963,> 5
"EMC-BAC-2 (lung adenocarcinoma, adherent)",0.93,> 5
"EN (endometrium, adherent)",0.914,> 5
"ES1 (Ewing sarcoma, adherent)",0.904,> 5
"ES3 (Ewing sarcoma, adherent)",0.867,4.9
"ES4 (Ewing sarcoma, adherent)",0.97,> 5
"ES5 (Ewing sarcoma, adherent)",0.957,> 5
"ES6 (Ewing sarcoma, adherent)",0.936,> 5
"ES7 (Ewing sarcoma, adherent)",0.934,> 5
"ES8 (Ewing sarcoma, adherent)",0.902,> 5
"ES-2 (ovary, adherent)",0.887,4.39
"ESO26 (oesophagus, adherent)",0.989,> 5
"ESO51 (oesophagus, semi-adherent)",0.978,> 5
"ESS-1 (endometrium, adherent)",0.973,> 5
"ETK-1 (biliary tract, adherent)",0.971,> 5
"EVSA-T (breast, adherent)",0.855,3.12
"EW-1 (Ewing sarcoma, semi-adherent)",0.976,> 5
"EW-3 (Ewing sarcoma, adherent)",0.961,> 5
"EW-7 (Ewing sarcoma, semi-adherent)",0.99,> 5
"EW-11 (Ewing sarcoma, adherent)",0.981,> 5
"EW-13 (Ewing sarcoma, suspension)",0.986,> 5

Cell Line,AUC,IC50 [µM]
"EW-16 (Ewing sarcoma, adherent)",0.967,> 5
"EW-18 (Ewing sarcoma, suspension)",0.978,> 5
"EW-22 (Ewing sarcoma, adherent)",0.984,> 5
"EW-24 (Ewing sarcoma, semi-adherent)",0.992,> 5
"EoL-1-cell (haematopoietic neoplasm, suspension)",0.987,> 5
"FADU (head and neck, adherent)",0.914,> 5
"FLO-1 (oesophagus, adherent)",0.916,> 5
"FTC-133 (thyroid, adherent)",0.983,> 5
"FU97 (stomach, adherent)",0.986,> 5
"FU-OV-1 (ovary, adherent)",0.955,> 5
"Farage (B-cell lymphoma, suspension)",0.984,> 5
"G-292 Clone A141B1 (osteosarcoma, adherent)",0.976,> 5
"G-361 (melanoma, adherent)",0.988,> 5
"G-401 (kidney, adherent)",0.968,> 5
"G-402 (soft tissue, adherent)",0.964,> 5
"GA-10 (Burkitt lymphoma, suspension)",0.975,> 5
"GAK (melanoma, adherent)",0.986,> 5
"GAMG (glioma, adherent)",0.858,4.44
"GB-1 (glioma, adherent)",0.91,> 5
"GCIY (stomach, adherent)",0.98,> 5
"GDM-1 (acute myeloid leukaemia, suspension)",0.987,> 5
"GI-1 (glioma, adherent)",0.987,> 5
"GI-ME-N (neuroblastoma, adherent)",0.88,> 5
"GMS-10 (glioma, adherent)",0.971,> 5
"GOTO (neuroblastoma, adherent)",0.944,> 5

# The IC50 comes from the fitted curve, where viability falls to half of the control; a limit (>, <) means that the fit lies beyond the doses tested. For AUC the same curve is integrated over the 256-fold range of doses and scaled to a fraction: 1 means no effect, lower means more sensitive. The top dose, if marked as inferred, was calculated from the reported fits.
